# The other results are listed elsewhere or left out. Shown are side measurements of this screen, not its main read-out; they come without a call. Most of these compounds were active or inconclusive in the main read-out, so they are no random draw.
# Assay: growth inhibition of WT strain, primary screen, mitochondrial fusion inhibitor project, WT and mutant strains, chemical genetic (AID 1362); note: tested in S. cerevisiae
# Conditions: mitochondrial fusion phenotypic screen, at 10 µM
row,Compound,inhibition [%]
1,Cc1nc(Nc2ccccc2)sc1-c1ccccc1,18.5
2,O=[N+]([O-])c1ccccc1/C=C/C=N/n1c(-c2ccccc2)n[nH]c1=S,22.7
3,O=C(CCN1C(=O)/C(=C/c2cccs2)SC1=S)NC1=NCCS1,17
4,Cc1cc(N2CCC(C)CC2)nc(-n2nc(C)cc2C)n1,66.5
5,COc1ccc(NC(=S)N(CCCN2CCCC2)Cc2cccn2Cc2ccc(Cl)cc2)cc1Cl,28.6
6,O=C(COC(=O)CC(c1ccccc1)c1ccccc1)Nc1ccc(F)c(F)c1,33.3
7,CCOC(=O)Cc1ccc2sc(-c3ccccc3)nc2c1,45
8,Cc1cccc(NC(=S)N(CCCN2CCCC2)Cc2cccn2Cc2ccc(Cl)cc2)c1,31.8
9,CN1CCN(Cc2nc3ccccc3c(=O)n2Cc2nc(-c3ccc4ccccc4c3)cs2)CC1,78.3
10,C/C(=N\NC(=O)COc1ccccc1-c1ccccc1)c1ccccn1,61.8
11,CNC(=O)c1nn(-c2ccc(Cl)cc2)ccc1=O,97.8
12,CC(=O)c1sc(N/N=C\c2ccc(Br)cc2)nc1C,58.8
13,CCOC(=O)c1ccc(NC(=S)N2CCSC2c2ccc(Cl)cc2)cc1 (centres undefined),37.5
14,COC(=O)[C@@H]1[C@@H](C#N)C2(c3ccccc3-c3ccccc32)N(c2ccc(Cl)cc2)N1C#N,30.4
15,CN1CCN(c2cc(N3CCc4ccccc4C3)c(F)cc2[N+](=O)[O-])CC1,73.1
16,COc1ccc(/C=C/c2nc3cc(-c4ccccc4)ccc3o2)cc1O,5.88
17,O=C(NC1=C(Nc2ccc(F)cc2)C(=O)c2ccccc2C1=O)c1ccc(Cl)cc1,42.6
18,Cc1nc(C(=O)Nc2cccc(Cl)c2)nn1-c1cc(OC(C)C)c(Cl)cc1Cl,32.9
19,Clc1ccc(-c2csc(Nc3ccccc3)[n+]2Cc2ccco2)c(Cl)c1,37.1
20,N/C(=N\OC(=O)Cc1ccc(-c2ccccc2)cc1)c1ccccn1,54.5
21,CCCCCC1CCC(c2n[nH]c(=S)n2C)CC1 (centres undefined),56.3
22,COc1ccc(OC)c(-c2cc(C(=O)N3CCc4ccccc4C3)no2)c1,35.1
23,CCSc1ccc2cc(OC)ccc2[n+]1CC,-40.2
24,Cc1c(N(C(=O)Nc2ccccc2)C2=NCC(C)S2)c(=O)n(-c2ccccc2)n1C (centres undefined),20.7
25,CC(C)(C)c1ccc(CN2N=C(/C=C/c3ccccc3)CCC2=O)cc1,3.81
26,Cc1cc(C)cc(OCC(=O)OCC(=O)c2ccc3c(c2)NC(=O)CO3)c1,-1.64
27,CCOC(=O)C1=C(C)N=C2SCCC(=O)N2C1c1sccc1C (centres undefined),5.51
28,Cc1cccc(N(C)C(=S)Oc2ccc3ccccc3c2)c1,8.82
29,O=C(c1ccc(Cl)cc1[N+](=O)[O-])N(Cc1ccccc1)Cc1ccccc1,29.1
